This passage reports self-cleavage results from the RNAGym collection of RNA variant scans (doi:10.7554/elife.90254).

B1: OR4K15 (parent)
chain: GUUAACGGUCAUAGGCCAUGGAAACUAGGAGCACCAUUUCGCUGCCAGUGAAGAAAUGAACAAAGAAAAUCUGGGCCAGGCAGGCAUCAAAAGAAAUAGUCUUGCGCUCAACCAGAAAGUCUGUAAUCAUUUUAAGGGUA

Read counts are not given, so values of variants with three or more changes are uncertain.

This data set covers variants of B1. Kind of data set: self-cleavage, relative activity (ratio to wild type); higher = more cleavage; in vitro, sequencing; the parent is a self-cleaving ribozyme.
For GUUAACGGUCAUAGGCCAUGGAAACUAGGAGCACCAUUUCGCUGCCUGUGAAGAUAUGAACAAAGAAAAUCUGGGCCAGGCAGGCAUCAAAGGAAAUAGUCUUGCGCUCAACCAGAAAGUCUGUAAUCAUUUUAAGGGUA [A47U A55U A92G], the self-cleavage is 0.05.
On to GUUAACGGUCAUAGGCCAUGGAAACUAGGAGCACCAUUUCGCUGCCUGUGAAGAAAUGAACAAAGAAGAUCUGGGCCAGGCAGGCAUCAAAAGAGAUAGUCUUGCGCUCAACCAGAAAGUCUGUAAUCAUUUUGAGGGUA [A47U A68G A95G A134G], for which the self-cleavage is 1.38.
As for GUUAACGGUCAUAGGCCAUGGAAACUAGGAGCACCAUUUCGCUGCCUGUGAAGAAAUGAGCAAAGAAAAUCUGGGCCAGGCAGGCAUCAAAAGAAAUAGUCUUGCGCCCAACCAGAAAGUCCGUGAUCGUUUUAAGGGUA [A47U A60G U108C U122C A125G A129G], the figure is 0; as for GUUAACGGUCAUAGGCCAUGGAAACUAGGAGCACCAUUUCGCUGCCUGUGGAGAAAUGAACGGAGAAAAUCUGGGCCAGGCAGGCAUCAAAAGAAAUAGUCUUGCGCUCAACCAGAAAGUCUGUAAUCAUUUUAAGGGUA [A47U A51G A62G A63G], 0.23; as for GUUAACGGUCAUAGGCCAUGGAAACUAGGAGCACCAUUUCGCUGCCUGUGAAGUAAUGGACAAAGAAAAACUGGGCCAGGCAGGCAUCAAAAGAAAUAGUCUUGCGCUCAACCGGAAAGUCUGUAAUCAUUCUAAGGGUA [A47U A54U A59G U70A A114G U132C], 0.09.
As for GUUAACGGUCAUAGGCCAUGGAAACUAGGAGCACCAUUUCGCUGCCGGUGAAGAAAUGAACAAAGAAAAUCUGGGCCAGGCAGGCAUCAAAAGAAAGAGUCUUGCGCUCAACCAGAAAGUCCGUAAUCAUUUUAAGGGUA [A47G U97G U122C], the figure is 1.62; as for GUUAACGGUCAUAGGCCAUGGAAACUAGGAGCACCAUUUCGCUGCCGGUGAAGAAAUGAACAAAGAAAACCUGGGCCAGGCAGGCGUCAAAAGAAAUAGUCUUGCGCUCAACCAGAAAGUCUGUAAUCAUUUUAAGGGUA [A47G U70C A86G], 0.53; as for GUUAACGGUCAUAGGCCAUGGAAACUAGGAGCACCAUUUCGCUGCCUGUGAAGAAAUGAACAAAGAAAAUCUGGGCCAGGCAGGCAUCAAAGGAAAUAGUCGUGCGCUCGACCUGAAGGUCUGUAAUCAUUUUAAGGGUA [A47U A92G U102G A110G A114U A118G], 0.03.
The value for GUUAACGGUCAUAGGCCAUGGAAACUAGGAGCACCAUUUCGCUGCCUGUGAAGAAAUGAACAAAGAAAAUCUGGGCCAGGCUGGCAUCAAAAGAAGUAGUCUUGCGCUCAACCAGAAAGUCAGUAAUCAUUUUAAGGGUA [A47U A82U A96G U122A] was 0.12; that for GUUAACGGUCAUAGGCCAUGGAAACUAGGAGCACCAUUUCGCUGCCUGUGAAGAAAUGGACAAAGAAAAUCUGGGCCAGGCAGGCAUCGAAAGAAAUAGUCUUGCGCUCAACCAGAAAGUCUGUAAUCAUUUUAAGGGUA [A47U A59G A89G] was 0.66.
For GUUAACGGUCAUAGGCCAUGGAAACUAGGAGCACCAUUUCGCUGCCUGUGAAGAAAUGAACAAAGAAAAUCUGGGCCAGGCAGGCUCCAAAAGAAAUAGUCUUGCGCUCAGCCAGAAAGUCCGUAAUCAUUUUAAGGGUA [A47U A86U U87C A111G U122C], the self-cleavage turned out to be 0.01.
As for GUUAACGGUCAUAGGCCAUGGAAACUAGGAGCACCAUUUCGCUGCCUGUGAUGAAAUGAGCAAAGAAAAUCUGGGCCAGGCAGGCAUCAAAAGAAAUAGUCUUGCGCUCAACCAGAAAGUCUGUAAUCAUUUUAAGGGUA [A47U A52U A60G], the figure is 1.42; as for GUUAACGGUCAUAGGCCAUGGAAACUAGGAGCACCAUUUCGCUGCCUGUGAAGAAAUGAACAGAGAAAAUCUGGGCCAGGCAGGCAUCAAAAGAAAUAGUCUUGCGCUCAACCAGAAAGUCUGUAAUCACUUUAAGGGUA [A47U A63G U130C], 0.3.
The value for GUUAACGGUCAUAGGCCAUGGAAACUAGGAGCACCAUUUCGCUGCCUGUGAAGAAAUGAGCAAAGAAAAUCUGGGCCAGGCAGGCAUCAAAAGAAAUAGUCUCGCGCUCGACCAGAAAGUCUGUAAUCAUUUUAAGGGUA [A47U A60G U103C A110G] was 0.02; that for GUUAACGGUCAUAGGCCAUGGAAACUAGGAGCACCAUUUCGCUGCCUGUGAGGAAAUGAACAAAGAAAAUCUGGGCCAGGCAGGCAUCAAAAGAAAUAGUCUUGCGCUCAACCAGAAGGUCUGUAAUCAUUUUAAGGGUA [A47U A52G A118G] was 0.29; that for GUUAACGGUCAUAGGCCAUGGAAACUAGGAGCACCAUUUCGCUGCCUGUGGAGAAAUGAACAAAGAAAAUCUGGGCCAGGCAGGCAUCAAAAGAAAUAGUCUUGCGCUCAACCAGAAAGUCUGUGAUCAUUUUAAGGGUA [A47U A51G A125G] was 0.16.
With GUUAACGGUCAUAGGCCAUGGAAACUAGGAGCACCAUUUCGCUGCCUGUGAAGAAAUGAACAAAGAAAAUCUGGGCCAGGCAGGCAUCAAGAGAAAUGGUCUUGCGCUCAACCAGAAAGUCUGUAAUCAUUUUAAGGGUA [A47U A91G A98G], the self-cleavage was 0.1.
For GUUAACGGUCAUAGGCCAUGGAAACUAGGAGCACCAUUUCGCUGCCUGUGAGGAAAUGAACAAAGAAAAUCUGGGCCAGGCAGGCAUCAAAAGAAAUAGUCUUGCGCUCAACCAGGAAGUCUGUAAUCAUUAUAAGGGUA [A47U A52G A116G U132A], the self-cleavage was determined as 0.11.
As for GUUAACGGUCAUAGGCCAUGGAAACUAGGAGCACCAUUUCGCUGCCGGUGAAGAAAUGAACAAAGAAAAUCUGGGCCAGGCAGGCAACAAAAGAAAUAGUCUUGCGCUCAACCAGAAAGUCUGUAAUCAUUUUAGGGGUA [A47G U87A A135G], the figure is 1.12; as for GUUAACGGUCAUAGGCCAUGGAAACUAGGAGCACCAUUUCGCUGCCUGUGAAGAAAUGAACAAAGGAAAUCUGGGCCAGGCAGGCAUCAAAAGAAAUAGUCCUGCGCUCAACCAGAAAGUCUGUAAUCAUUUUAAGGGUA [A47U A66G U102C], 1.89; as for GUUAACGGUCAUAGGCCAUGGAAACUAGGAGCACCAUUUCGCUGCCUGUGAAGAGGUGAACAAAGAAAACCUGGGCCUGGCAGGCAUCAAAAGAAAUAGUCUUGCGCUCAACCAGAAAGUCUGUAAUCAUUUUAAGGGUA [A47U A55G A56G U70C A78U], 0.11.
As for GUUAACGGUCAUAGGCCAUGGAAACUAGGAGCACCAUUUCGCUGCCUGUGAAGACAUGAACAAAGAAAAUCUGGGCCAGGCUGGCGUCAAGAGAAAUAGUCUUGCGCUCAACCAGAAAGCCUGUAAUCAUUCUAAGGGUA [A47U A55C A82U A86G A91G U120C U132C], the figure is 0.02; as for GUUAACGGUCAUAGGCCAUGGAAACUAGGAGCACCAUUUCGCUGCCGGUGAAGAAAUGAACAAAGAAAAUCUGGGCCAGGCAGGCAUCAAAAGAAAUAGUCUUGCGCUCAACCAGAAAGUCUGUAACCAUUUCAAGGGUA [A47G U127C U133C], 0.77.
The value for GUUAACGGUCAUAGGCCAUGGAAACUAGGAGCACCAUUUCGCUGCCUGUGAAGAAAUGAACAAAGGAAAUCUGGGCCAGGCAGGCAUCAAAAGAUAUAGUCUUGCGCUCAACCAGAAAGUCUGUAAUCAUUUUAAGGGUA [A47U A66G A95U] was 2.32.
GUUAACGGUCAUAGGCCAUGGAAACUAGGAGCACCAUUUCGCUGCCGGUGAAGAAAUGAACAAAGAAAAUCAGGGCCAGGCAGGCAUCAAAAGAAAUAGUCUUGCGCUCAACCAGAAAGUCUGUAAUCAUUUUGAGGGUA [A47G U72A A134G]: the self-cleavage worked out at 0.26.
Consider GUUAACGGUCAUAGGCCAUGGAAACUAGGAGCACCAUUUCGCUGCCUGUGAAGAAAUGAACAAAGAAAAUCUGGGCCAGGCGGGCAUCAAAAGAAAUAGUCUCGCGCUCAACCAGAAAGUCUGUAAUCAUUUUAAGGGUA [A47U A82G U103C], for which the self-cleavage stood at 1.99.
The value for GUUAACGGUCAUAGGCCAUGGAAACUAGGAGCACCAUUUCGCUGCCUGUGAAGAAGUGAACAAAGAAAAUCUGGGCCAGGCAGGCAUCAAAAGAAAUAGUCUUGCGCUCAACCAGAAAGUCUGUAAUCAUUUUAAGUGUA [A47U A56G G137U] was 1.69; that for GUUAACGGUCAUAGGCCAUGGAAACUAGGAGCACCAUUUCGCUGCCUGUGAAGAAAUGAACAAAGAAUAUCUGGGCCAGGCAGGCAUCAGAAGAAAUAGUCUUGCGCUCAGCCAGAAAGUCUGUAAUCAUUUUAAGGGUA [A47U A68U A90G A111G] was 0.04; that for GUUAACGGUCAUAGGCCAUGGAAACUAGGAGCACCAUUUCGCUGCCUGUGAAGAAAUGAACAAAGAAAUUCUGGGCCUGGCAGGCAUCAAAAGAAAUAGCCUUGCGCUCAACCAGAAAGUCUGUAAUCAUUUUAAGGGUA [A47U A69U A78U U100C] was 1.74.
As for GUUAACGGUCAUAGGCCAUGGAAACUAGGAGCACCAUUUCGCUGCCUGUGAAGAAAUGAACAAAGAAAAUCUGGGCCAGGCAGGCAUCUAAAGAAAUAGUCUUGCGCUCGACCAGAAAGUCUGUAAUCAUUUUAAGGGUA [A47U A89U A110G], the figure is 0.06.
As for GUUAACGGUCAUAGGCCAUGGAAACUAGGAGCACCAUUUCGCUGCCUGUGAAGAAAUGAACAAAGAAAUUCUGGGCCAGGCAGGCAUCAGAAGAAAUAGUCUUGCGCUCAACCAGAAAGUCUGUAAUCAUUUUAAGGGUA [A47U A69U A90G], the figure is 0.96.
For the variant GUUAACGGUCAUAGGCCAUGGAAACUAGGAGCACCAUUUCGCUGCCGGUGAAGAAAUGAACAAAGAAAAUCCGGGCCAGGCAGGCAUCAAAAGAAAUAGUCUUGCGCUCUACCAGAAAGUCUGUAAUCAUUUUAAGGGUA [A47G U72C A110U], the self-cleavage turned out to be 0.17.
The value for GUUAACGGUCAUAGGCCAUGGAAACUAGGAGCACCAUUUCGCUGCCGGUGAAGAAAUGAACAAAGAAAACCUGGGCCAGGCAGGCAUCAAAAGAAAUAGUCUUGCGCUCUACCAGAAAGUCUGUAAUCAUCUUAAGGGUA [A47G U70C A110U U131C] was 0.07; that for GUUAACGGUCAUAGGCCAUGGAAACUAGGAGCACCAUUUCGCUGCCUGUGAAGAAAUGAACAAAGAAAAUCUGGGCCAGGCGGGCAUCAAAAGAAAUAGUCUUGCGCUCAACCAGAAAGUCAGUAAUCAUUUUAAGGGUA [A47U A82G U122A] was 0.35; that for GUUAACGGUCAUAGGCCAUGGAAACUAGGAGCACCAUUUCGCUGCCUGUGAGGAAAUGAACAAAGAAAAUCUGGGCCAGGCAGGCAUCAAAAGAAAUAGUCUUGCGCUCAACCAGAAGGUCUGUAACCAUUUUAAGGGUG [A47U A52G A118G U127C A140G] was 0.17.
As for GUUAACGGUCAUAGGCCAUGGAAACUAGGAGCACCAUUUCGCUGCCUGUGAAGAAAUGAACAAAGAAAAUCUGGGCCAGGCAGGCAUCAGAAGAAAUAGUCUUGCGCUCAACCAGAGAGUCUGUAAUCAUUUUAAGGGUA [A47U A90G A117G], the figure is 1.15.
As for GUUAACGGUCAUAGGCCAUGGAAACUAGGAGCACCAUUUCGCUGCCUGUGAAGGAAUGAACAAAGAAAAUCUGGGCCAGGCAGGCAUCAAAUGAAAUAGUCUUGCGCUCAACCAGAAAGUCUGUAAUCAUUUUAAGGGUA [A47U A54G A92U], the figure is 0.95; as for GUUAACGGUCAUAGGCCAUGGAAACUAGGAGCACCAUUUCGCUGCCUGUGAAGAAAUGAACAAAGAAAGACUGGGCCAGGCAGGCAUCAAAAGAAAUAGUCUUACGCUCAACCAGAAAGUCUGUAAUCAUUUUAAGGGUA [A47U A69G U70A G104A], 0.02.
For GUUAACGGUCAUAGGCCAUGGAAACUAGGAGCACCAUUUCGCUGCCUGUGAAGAAAUGAACAGAGAAAAUCUGGGCCAGGCAGGCAUCAAAAGAAAUGGUCUUGCGCUCAACCAGAAAGUCUGUAAUCAUUUUAAGGGUA [A47U A63G A98G], the self-cleavage was found to be 0.27.
Regarding GUUAACGGUCAUAGGCCAUGGAAACUAGGAGCACCAUUUCGCUGCCUGUGAAGAAAUGAACAAAGAAAAUCUGGGCCAGGCAGGCAUCUAAAGGAAUAGUCUUGCGCUCAACCAGAAAGUCUGUAAUCAUUUUAAGGGUA [A47U A89U A94G], the self-cleavage turned out to be 1.47.
As for GUUAACGGUCAUAGGCCAUGGAAACUAGGAGCACCAUUUCGCUGCCUGUGAAGAAAUGAACAAGGAAAAUCCGGGCCAGGCAGGCAUCAAAAGAAAUAGUCUUGCGCUCAACCAGAAAGUCUGUAAUCAUUUUAAGGGUA [A47U A64G U72C], the figure is 0.16.
